According to publication PMC6713913:
Substitutions are numbered along the chain they refer to. Names may count otherwise. Results are given in words; binding and its absence hold for the method and conditions named. In cells and extracts the contact can be indirect. Some results given as binding are weak or reduced against the parent protein; the word gives no strength. For some assays here: Where a sequence is shown, tags or fusion partners need not be part of it. Values belong to the molecule of their own block, whether it stands above or below them.

Protein sequences, listed by entry. Tags and fused reporters are not part of them.
UniProt P02533: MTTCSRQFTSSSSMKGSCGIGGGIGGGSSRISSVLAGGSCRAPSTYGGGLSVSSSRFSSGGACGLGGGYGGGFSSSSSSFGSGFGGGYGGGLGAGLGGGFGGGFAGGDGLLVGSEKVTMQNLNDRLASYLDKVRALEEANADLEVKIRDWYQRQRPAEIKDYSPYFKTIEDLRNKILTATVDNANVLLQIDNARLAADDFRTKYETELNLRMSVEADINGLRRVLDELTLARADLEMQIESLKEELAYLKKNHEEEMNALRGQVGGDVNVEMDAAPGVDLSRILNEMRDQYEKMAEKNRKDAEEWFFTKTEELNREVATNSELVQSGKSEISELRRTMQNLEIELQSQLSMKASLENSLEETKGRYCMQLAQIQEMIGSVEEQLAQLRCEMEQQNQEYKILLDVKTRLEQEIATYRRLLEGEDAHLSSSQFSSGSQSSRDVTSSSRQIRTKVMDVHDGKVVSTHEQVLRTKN
UniProt P13647: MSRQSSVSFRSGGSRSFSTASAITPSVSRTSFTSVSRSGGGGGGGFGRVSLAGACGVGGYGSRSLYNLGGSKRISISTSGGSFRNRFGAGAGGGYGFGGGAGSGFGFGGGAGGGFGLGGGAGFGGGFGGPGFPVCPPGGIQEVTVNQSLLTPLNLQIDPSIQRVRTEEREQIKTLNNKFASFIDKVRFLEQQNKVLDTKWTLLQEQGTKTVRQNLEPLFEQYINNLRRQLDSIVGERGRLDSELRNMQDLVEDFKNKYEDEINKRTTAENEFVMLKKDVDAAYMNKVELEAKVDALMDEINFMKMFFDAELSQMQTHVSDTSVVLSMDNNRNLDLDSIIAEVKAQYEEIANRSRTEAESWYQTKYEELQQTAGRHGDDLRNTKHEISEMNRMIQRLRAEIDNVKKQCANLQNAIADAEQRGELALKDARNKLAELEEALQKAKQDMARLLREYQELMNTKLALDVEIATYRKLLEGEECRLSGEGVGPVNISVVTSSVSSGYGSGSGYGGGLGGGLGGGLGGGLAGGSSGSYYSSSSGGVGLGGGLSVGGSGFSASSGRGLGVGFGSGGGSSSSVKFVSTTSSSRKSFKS

What was measured:
[1] = target: endogenous KRT14 of HaCaT cells (human (endogenous in HaCaT)) (UniProt P02533); assay: co-IP; endogenous KRT14 immunoprecipitated with anti-KRT14 from HaCaT and RIPK4 KO (CRISPR/Cas9) cell lysates, mouse anti-Flag as control; blots with anti-KRT5, anti-KRT14 and anti-RIPK4
[2] = target: GST-tagged KRT14 (mammalian expression) (human) (UniProt P02533); assay: co-IP; HEK293T cells transfected with Flag-RIPK4 constructs and GST-KRT14; GST-KRT14 immunoprecipitated with anti-GST and protein G agarose, 4 °C; blots with anti-Flag and anti-GST
[3] = target: GST-KRT14 (bacterial expression) (human) (UniProt P02533); assay: pull-down; GST-KRT14 from bacteria bound to GST trap beads, incubated with His-RIPK4 containing bacterial lysate 1 h at 4 °C; washes with 300 mM NaCl, 0.1% NP-40; blots with anti-RIPK4 and anti-GST; only the target purified
Flag-KRT5 (human) = Flag-KRT5 (human) (UniProt P13647); assay: co-IP; transfected HEK293T cells; Flag-KRT5 immunoprecipitated with anti-Flag; blots with anti-Flag, anti-GST and anti-RIPK4; with or without RIPK4 overexpression

B3: His-RIPK4 (bacterial expression) (protein, UniProt P57078-2 1-784)
chain: MEGDGGTPWALALLRTFDAGEFTGWEKVGSGGFGQVYKVRHVHWKTWLAIKCSPSLHVDDRERMELLEEAKKMEMAKFRYILPVYGICREPVGLVMEYMETGSLEKLLASEPLPWDLRFRIIHETAVGMNFLHCMAPPLLHLDLKPANILLDAHYHVKISDFGLAKCNGLSHSHDLSMDGLFGTIAYLPPERIREKSRLFDTKHDVYSFAIVIWGVLTQKKPFADEKNILHIMVKVVKGHRPELPPVCRARPRACSHLIRLMQRCWQGDPRVRPTFQEITSETEDLCEKPDDEVKETAHDLDVKSPPEPRSEVVPARLKRASAPTFDNDYSLSELLSQLDSGVSQAVEGPEELSRSSSESKLPSSGSGKRLSGVSSVDSAFSSRGSLSLSFEREPSTSDLGTTDVQKKKLVDAIVSGDTSKLMKILQPQDVDLALDSGASLLHLAVEAGQEECAKWLLLNNANPNLSNRRGSTPLHMAVERRVRGVVELLLARKISVNAKDEDQWTALHFAAQNGDESSTRLLLEKNASVNEVDFEGRTPMHVACQHGQENIVRILLRRGVDVSLQGKDAWLPLHYAAWQGHLPIVKLLAKQPGVSVNAQTLDGRTPLHLAAQRGHYRVARILIDLCSDVNVCSLLAQTPLHVAAETGHTSTARLLLHRGAGKEAMTSDGYTALHLAARNGHLATVKLLVEEKADVLARGPLNQTALHLAAAHGHSEVVEELVSADVIDLFDEQGLSALHLAAQGRHAQTVETLLRHGAHINLQSLKFQGGHGPAATLLRRSKT
binding [3]: binds

B5: RIPK4 overexpressed together with Flag-KRT5 (Figures 3A and 3B) (protein, UniProt P57078-2 1-784)
chain: B3 chain
binding (Flag-KRT5 (human)): no binding

B7: RIPK4 N-Ter (containing kinase domain, aa 1-292), Flag-tagged (domain or fragment, UniProt P57078-2 1-292)
chain: MEGDGGTPWALALLRTFDAGEFTGWEKVGSGGFGQVYKVRHVHWKTWLAIKCSPSLHVDDRERMELLEEAKKMEMAKFRYILPVYGICREPVGLVMEYMETGSLEKLLASEPLPWDLRFRIIHETAVGMNFLHCMAPPLLHLDLKPANILLDAHYHVKISDFGLAKCNGLSHSHDLSMDGLFGTIAYLPPERIREKSRLFDTKHDVYSFAIVIWGVLTQKKPFADEKNILHIMVKVVKGHRPELPPVCRARPRACSHLIRLMQRCWQGDPRVRPTFQEITSETEDLCEKPDD
binding [2]: binds

Other lines, results leading:

binding [1]: binds
Molecule: endogenous KRT5 of HaCaT cells (from UniProt P13647 1-590)

binding [2]: no binding
B1: RIPK4 C-Ter (containing ID and ankyrin, aa 278-784), Flag-tagged (domain or fragment, UniProt P57078-2 278-784)
chain: EITSETEDLCEKPDDEVKETAHDLDVKSPPEPRSEVVPARLKRASAPTFDNDYSLSELLSQLDSGVSQAVEGPEELSRSSSESKLPSSGSGKRLSGVSSVDSAFSSRGSLSLSFEREPSTSDLGTTDVQKKKLVDAIVSGDTSKLMKILQPQDVDLALDSGASLLHLAVEAGQEECAKWLLLNNANPNLSNRRGSTPLHMAVERRVRGVVELLLARKISVNAKDEDQWTALHFAAQNGDESSTRLLLEKNASVNEVDFEGRTPMHVACQHGQENIVRILLRRGVDVSLQGKDAWLPLHYAAWQGHLPIVKLLAKQPGVSVNAQTLDGRTPLHLAAQRGHYRVARILIDLCSDVNVCSLLAQTPLHVAAETGHTSTARLLLHRGAGKEAMTSDGYTALHLAARNGHLATVKLLVEEKADVLARGPLNQTALHLAAAHGHSEVVEELVSADVIDLFDEQGLSALHLAAQGRHAQTVETLLRHGAHINLQSLKFQGGHGPAATLLRRSKT

binding [2]: binds
B2: full-length Flag-tagged RIPK4 (protein, UniProt P57078-2 1-784)
chain: B3 chain

binding [2]: binds
B4: kinase-dead RIPK4 (K51R), Flag-tagged (protein, UniProt P57078-2 1-784)
chain: B3 chain with K51R

binding [2]: no binding
B6: RIPK4 ID (intermediate domain, aa 278-438), Flag-tagged (domain or fragment, UniProt P57078-2 278-438)
chain: EITSETEDLCEKPDDEVKETAHDLDVKSPPEPRSEVVPARLKRASAPTFDNDYSLSELLSQLDSGVSQAVEGPEELSRSSSESKLPSSGSGKRLSGVSSVDSAFSSRGSLSLSFEREPSTSDLGTTDVQKKKLVDAIVSGDTSKLMKILQPQDVDLALDSG
